Laboratory results taken from the supplement of paper PMC7125110.
± gives the standard error. This sample is rich in variants without activity.

B1: glmS ribozyme (parent)
chain: AUAAAAGCGCCAGAACUACAGAAAUGUAGUUGACGAGGAGGAGGUUUAUCGAAUUUUCGGCGGAUGCCUCCAAA

Experiments:
Details in all cases: with glucosamine-6-phosphate
glucosamine-6-phosphate [1] = variants of: B1; experiment: self-cleavage kobs at 40 uM GlcN6P; higher = faster cleavage; RNA array
In short: (§1)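 Tiles bearing barcoded ribozyme variants, transcribed in situ by E. coli RNA polymerase on sequenced MiSeq chips, were imaged over ~14 h at 37 °C using a hybridised Cy3 probe. Glucosamine-6-phosphate was supplied at 40 μM to 10 mM in HEPES/KCl/Mg(OAc)2 buffer. kobs came from one- or two-exponential decay fits to normalised per-tile medians, and weighted Michaelis–Menten fits then provided kcat and KM.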

glucosamine-6-phosphate [2] = variants of: B1; experiment: self-cleavage kobs at 640 uM GlcN6P; higher = faster cleavage; RNA array
In short: as §1

glucosamine-6-phosphate [3] = variants of: B1; experiment: self-cleavage kobs at 160 uM GlcN6P; higher = faster cleavage; RNA array
In short: as §1

glucosamine-6-phosphate [4] = variants of: B1; experiment: self-cleavage kobs at 2500 uM GlcN6P; higher = faster cleavage; RNA array
In short: as §1

glucosamine-6-phosphate [5] = variants of: B1; experiment: self-cleavage kobs at 10000 uM GlcN6P; higher = faster cleavage; RNA array
In short: as §1

Variant | self-cleavage kobs at 40 uM GlcN6P (glucosamine-6-phosphate [1]) [s⁻¹] | self-cleavage kobs at 640 uM GlcN6P (glucosamine-6-phosphate [2]) [s⁻¹] | self-cleavage kobs at 160 uM GlcN6P (glucosamine-6-phosphate [3]) [s⁻¹] | self-cleavage kobs at 2500 uM GlcN6P (glucosamine-6-phosphate [4]) [s⁻¹] | self-cleavage kobs at 10000 uM GlcN6P (glucosamine-6-phosphate [5]) [s⁻¹]
A52U C58U | < 1e-05 | < 1e-05 | < 1e-05 | < 1e-05 | < 1e-05
A52U C71A | < 1e-05 | 5.96e-05 ± 1.3e-05 |  |  | 
A52U G60U | < 1e-05 |  |  | < 1e-05 | < 1e-05
A52U G63A | < 1e-05 | < 1e-05 | < 1e-05 | < 1e-05 | < 1e-05
A53C C70A | < 1e-05 |  |  | 6.85e-05 ± 1.7e-05 | 5.03e-05 ± 1.1e-05
A53C C70U | 0.000105 ± 1.2e-05 | 0.000893 ± 0.00013 | 0.000315 ± 2.6e-05 | 0.00403 ± 0.0007 | 0.00392 ± 0.00044
A53G C61G | < 1e-05 |  |  |  | 
A53G C61G C70U | < 1e-05 |  |  |  | 
A53U A64C | < 1e-05 |  |  |  | 
A53U G59A | < 1e-05 |  |  |  | 
A53U G60U | < 1e-05 | < 1e-05 |  |  | < 1e-05
U54A C70G | 6.49e-05 ± 8.1e-06 | 0.00033 ± 5.7e-05 | 6.78e-05 ± 1e-05 | 0.000176 ± 2.2e-05 | 0.000131 ± 1.5e-05
U54A U56G | 0.000226 ± 4.9e-05 | 0.00363 ± 0.00057 | 0.000857 ± 0.00017 | 0.00548 ± 0.00089 | 0.0131 ± 0.0038
U54G G63C U65C | < 1e-05 | < 1e-05 |  |  | 
U54G U56C | 6.58e-05 ± 1.3e-05 | 0.000986 ± 0.00024 | 0.000146 ± 2.8e-05 | 0.00123 ± 0.00029 | 0.00518 ± 0.0011
U55C G62C | < 1e-05 | < 1e-05 |  |  | < 1e-05
U55C U57A C68A | < 1e-05 |  |  |  | 
U55G C71G | 7.4e-05 ± 1.7e-05 |  |  | 0.000704 ± 0.00019 | 0.00121 ± 0.00035
U56A G59U | < 1e-05 |  |  |  | 
U56C G59A G63U C67G | < 1e-05 | < 1e-05 |  |  | < 1e-05
U56C G60A | < 1e-05 | < 1e-05 | < 1e-05 |  | 
U57C G66C | < 1e-05 | < 1e-05 |  |  | 
C58G G63U | < 1e-05 |  |  |  | 

Variant | self-cleavage kobs at 40 uM GlcN6P (glucosamine-6-phosphate [1]) [s⁻¹] | self-cleavage kobs at 640 uM GlcN6P (glucosamine-6-phosphate [2]) [s⁻¹] | self-cleavage kobs at 160 uM GlcN6P (glucosamine-6-phosphate [3]) [s⁻¹] | self-cleavage kobs at 2500 uM GlcN6P (glucosamine-6-phosphate [4]) [s⁻¹] | self-cleavage kobs at 10000 uM GlcN6P (glucosamine-6-phosphate [5]) [s⁻¹]
C58U G59C | < 1e-05 |  |  |  | 
C58U G62C U65G | < 1e-05 |  |  |  | 
G59C C67G C70G | < 1e-05 |  |  |  | 
G59C C71U | < 1e-05 | < 1e-05 | < 1e-05 | < 1e-05 | < 1e-05
G59C G60U G62U | < 1e-05 | < 1e-05 |  | < 1e-05 | < 1e-05
G59U C61G U65A U69G | < 1e-05 |  |  |  | 
G59U U65G C67U | < 1e-05 |  |  |  | 
G60U C68A | < 1e-05 | < 1e-05 | < 1e-05 | < 1e-05 | < 1e-05
G62U C71G | < 1e-05 |  |  |  | < 1e-05
G62U G63A | < 1e-05 | < 1e-05 | < 1e-05 | < 1e-05 | < 1e-05
G63A | < 1e-05 | < 1e-05 |  |  | < 1e-05
G63C U65A | < 1e-05 |  |  |  | < 1e-05
G63U A64U | < 1e-05 | < 1e-05 | < 1e-05 | < 1e-05 | 
A64G G66A | 0.000837 ± 9.3e-05 | 0.00554 ± 0.0008 | 0.00197 ± 0.00028 | 0.0124 ± 0.0025 | 0.0215 ± 0.0052
A64U G66U | < 1e-05 |  |  |  | 
C67G U69C | 5.09e-05 ± 1.4e-05 | 0.000506 ± 9.2e-05 | 0.000179 ± 3.4e-05 | 0.00077 ± 0.00014 | 0.00127 ± 0.0002
A6C A12C A33U C58A |  | < 1e-05 |  |  | 
A6C A12G C68G C70G |  | < 1e-05 | < 1e-05 | < 1e-05 | 
A6C A12U G41A |  | < 1e-05 | < 1e-05 | < 1e-05 | 
A6C A33G U46C C61G |  | < 1e-05 |  | < 1e-05 | 
A6C A39G U57G |  | < 1e-05 |  | < 1e-05 | 
A6C C8A G40C U56C G66C C68A |  | < 1e-05 | < 1e-05 |  | 
